Results as given in the supplement of paper PMC8728848.
This is one part of the list.

Experiments:
Assay in all cases: glycan array binding signal (z-score within array); higher = stronger binding
Details in all cases: glycan notation: IUPAC condensed, linker removed
Glc(a1-2)Glc = target: Glc(a1-2)Glc
Procedure, shortened: (§1)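 From the Consortium for Functional Glycomics database, 3228 arrays were curated, keeping only those whose protein sequence was available. Binding is given as a within-array Z-score averaged across arrays sharing a protein sequence and across linkers. Negative Z-scores can be read as non-binding.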

Glc(a1-2)Glc(a1-2)Glc = target: Glc(a1-2)Glc(a1-2)Glc
Procedure, shortened: as §1

[1] = target: Glc(a1-2)Glc(a1-2)Glc(a1-2)Glc
Procedure, shortened: as §1

[2] = target: Glc(a1-2)Glc(a1-2)Glc(a1-2)Glc(a1-2)Glc
Procedure, shortened: as §1

[3] = target: Glc(a1-2)Glc(a1-2)Glc(a1-2)Glc(a1-2)Glc(a1-2)Glc
Procedure, shortened: as §1

[4] = target: Glc(a1-2)Glc(a1-2)Glc(a1-2)Glc(a1-2)Glc(a1-2)Glc(a1-2)Glc
Procedure, shortened: as §1

[5] = target: Glc(a1-2)Glc(a1-2)Glc(a1-2)Glc(a1-2)Glc(a1-2)Glc(a1-2)Glc(a1-2)Glc
Procedure, shortened: as §1

[6] = target: Glc(a1-2)Glc(a1-2)Glc(a1-2)Glc(a1-2)Glc(a1-2)Glc(a1-2)Glc(a1-2)Glc(a1-2)Glc
Procedure, shortened: as §1

Glc(a1-3)Glc = target: Glc(a1-3)Glc
Procedure, shortened: as §1

Glc(a1-3)Glc(a1-3)Glc = target: Glc(a1-3)Glc(a1-3)Glc
Procedure, shortened: as §1

[7] = target: Glc(a1-3)Glc(a1-3)Glc(a1-3)Glc
Procedure, shortened: as §1

[8] = target: Glc(a1-3)Glc(a1-3)Glc(a1-3)Glc(a1-3)Glc
Procedure, shortened: as §1

[9] = target: Glc(a1-3)Glc(a1-3)Glc(a1-3)Glc(a1-3)Glc(a1-3)Glc
Procedure, shortened: as §1

[10] = target: Glc(a1-3)Glc(a1-3)Glc(a1-3)Glc(a1-3)Glc(a1-3)Glc(a1-3)Glc
Procedure, shortened: as §1

[11] = target: Glc(a1-3)Glc(a1-3)Glc(a1-3)Glc(a1-3)Glc(a1-3)Glc(a1-3)Glc(a1-3)Glc
Procedure, shortened: as §1

[12] = target: Glc(a1-3)Glc(a1-3)Glc(a1-3)Glc(a1-3)Glc(a1-3)Glc(a1-3)Glc(a1-3)Glc(a1-3)Glc
Procedure, shortened: as §1

[13] = target: Glc(a1-3)Glc(a1-3)Glc(a1-3)Glc(a1-3)Glc(a1-3)Glc(a1-3)Glc(a1-3)Glc(a1-3)Glc(a1-3)Glc
Procedure, shortened: as §1

[14] = target: Glc(a1-3)Glc(a1-3)Glc(a1-3)Glc(a1-3)Glc(a1-3)Glc(a1-3)Glc(a1-3)Glc(a1-3)Glc(a1-3)Glc(a1-3)Glc
Procedure, shortened: as §1

[15] = target: Glc(a1-3)Glc(a1-3)Glc(a1-3)Glc(a1-3)Glc(a1-3)Glc(a1-3)Glc(a1-3)Glc(a1-3)Glc(a1-3)Glc(a1-3)Glc(a1-3)Glc
Procedure, shortened: as §1

[16] = target: Glc(a1-3)Glc(a1-3)Glc(a1-3)Glc(a1-3)Glc(a1-3)Glc(a1-3)Glc(a1-3)Glc(a1-3)Glc(a1-3)Glc(a1-3)Glc(a1-3)Glc(a1-3)Glc
Procedure, shortened: as §1

Glc(a1-4)Glc = target: Glc(a1-4)Glc
Procedure, shortened: as §1

Glc(a1-4)Glc(a1-4)Glc = target: Glc(a1-4)Glc(a1-4)Glc
Procedure, shortened: as §1

[17] = target: Glc(a1-4)Glc(a1-4)Glc(a1-4)Glc
Procedure, shortened: as §1

[18] = target: Glc(a1-4)Glc(a1-4)Glc(a1-4)Glc(a1-4)Glc
Procedure, shortened: as §1

[19] = target: Glc(a1-4)Glc(a1-4)Glc(a1-4)Glc(a1-4)Glc(a1-4)Glc
Procedure, shortened: as §1

[20] = target: Glc(a1-4)Glc(a1-4)Glc(a1-4)Glc(a1-4)Glc(a1-4)Glc(a1-4)Glc
Procedure, shortened: as §1

[21] = target: Glc(a1-4)Glc(a1-4)Glc(a1-4)Glc(a1-4)Glc(a1-4)Glc(a1-4)Glc(a1-4)Glc
Procedure, shortened: as §1

[22] = target: Glc(a1-4)Glc(a1-4)Glc(a1-4)Glc(a1-4)Glc(a1-4)Glc(a1-4)Glc(a1-4)Glc(a1-4)Glc
Procedure, shortened: as §1

[23] = target: Glc(a1-4)Glc(a1-4)Glc(a1-4)Glc(a1-4)Glc(a1-4)Glc(a1-4)Glc(a1-4)Glc(a1-4)Glc(a1-4)Glc
Procedure, shortened: as §1

[24] = target: Glc(a1-4)Glc(a1-4)Glc(a1-4)Glc(a1-4)Glc(a1-4)Glc(a1-4)Glc(a1-4)Glc(a1-4)Glc(a1-4)Glc(a1-4)Glc
Procedure, shortened: as §1

[25] = target: Glc(a1-4)Glc(a1-4)Glc(a1-4)Glc(a1-4)Glc(a1-4)Glc(a1-4)Glc(a1-4)Glc(a1-4)Glc(a1-4)Glc(a1-4)Glc(a1-4)Glc
Procedure, shortened: as §1

[26] = target: Glc(a1-4)Glc(a1-4)Glc(a1-4)Glc(a1-4)Glc(a1-4)Glc(a1-4)Glc(a1-4)Glc(a1-4)Glc(a1-4)Glc(a1-4)Glc(a1-4)Glc(a1-4)Glc
Procedure, shortened: as §1

Glc(a1-4)Glc(a1-6)Glc = target: Glc(a1-4)Glc(a1-6)Glc
Procedure, shortened: as §1

Glc(a1-6)Glc = target: Glc(a1-6)Glc
Procedure, shortened: as §1

Glc(a1-6)Glc(a1-4)Glc = target: Glc(a1-6)Glc(a1-4)Glc
Procedure, shortened: as §1

[27] = target: Glc(a1-6)Glc(a1-4)Glc(a1-4)Glc
Procedure, shortened: as §1

[28] = target: Glc(a1-6)Glc(a1-4)Glc(a1-4)Glc(a1-6)Glc(a1-4)Glc(a1-4)Glc
Procedure, shortened: as §1

Glc(a1-6)Glc(a1-6)Glc = target: Glc(a1-6)Glc(a1-6)Glc
Procedure, shortened: as §1

[29] = target: Glc(a1-6)Glc(a1-6)Glc(a1-6)Glc
Procedure, shortened: as §1

[30] = target: Glc(a1-6)Glc(a1-6)Glc(a1-6)Glc(a1-6)Glc
Procedure, shortened: as §1

[31] = target: Glc(a1-6)Glc(a1-6)Glc(a1-6)Glc(a1-6)Glc(a1-6)Glc
Procedure, shortened: as §1

[32] = target: Glc(a1-6)Glc(a1-6)Glc(a1-6)Glc(a1-6)Glc(a1-6)Glc(a1-6)Glc
Procedure, shortened: as §1

[33] = target: Glc(a1-6)Glc(a1-6)Glc(a1-6)Glc(a1-6)Glc(a1-6)Glc(a1-6)Glc(a1-6)Glc
Procedure, shortened: as §1

[34] = target: Glc(a1-6)Glc(a1-6)Glc(a1-6)Glc(a1-6)Glc(a1-6)Glc(a1-6)Glc(a1-6)Glc(a1-6)Glc
Procedure, shortened: as §1

[35] = target: Glc(a1-6)Glc(a1-6)Glc(a1-6)Glc(a1-6)Glc(a1-6)Glc(a1-6)Glc(a1-6)Glc(a1-6)Glc(a1-6)Glc
Procedure, shortened: as §1

[36] = target: Glc(a1-6)Glc(a1-6)Glc(a1-6)Glc(a1-6)Glc(a1-6)Glc(a1-6)Glc(a1-6)Glc(a1-6)Glc(a1-6)Glc(a1-6)Glc
Procedure, shortened: as §1

[37] = target: Glc(a1-6)Glc(a1-6)Glc(a1-6)Glc(a1-6)Glc(a1-6)Glc(a1-6)Glc(a1-6)Glc(a1-6)Glc(a1-6)Glc(a1-6)Glc(a1-6)Glc
Procedure, shortened: as §1

[38] = target: Glc(a1-6)Glc(a1-6)Glc(a1-6)Glc(a1-6)Glc(a1-6)Glc(a1-6)Glc(a1-6)Glc(a1-6)Glc(a1-6)Glc(a1-6)Glc(a1-6)Glc(a1-6)Glc
Procedure, shortened: as §1

Glc(b1-2)Glc = target: Glc(b1-2)Glc
Procedure, shortened: as §1

Glc(b1-2)Glc(b1-2)Glc = target: Glc(b1-2)Glc(b1-2)Glc
Procedure, shortened: as §1

[39] = target: Glc(b1-2)Glc(b1-2)Glc(b1-2)Glc
Procedure, shortened: as §1

[40] = target: Glc(b1-2)Glc(b1-2)Glc(b1-2)Glc(b1-2)Glc
Procedure, shortened: as §1

[41] = target: Glc(b1-2)Glc(b1-2)Glc(b1-2)Glc(b1-2)Glc(b1-2)Glc
Procedure, shortened: as §1

[42] = target: Glc(b1-2)Glc(b1-2)Glc(b1-2)Glc(b1-2)Glc(b1-2)Glc(b1-2)Glc
Procedure, shortened: as §1

[43] = target: Glc(b1-2)Glc(b1-2)Glc(b1-2)Glc(b1-2)Glc(b1-2)Glc(b1-2)Glc(b1-2)Glc
Procedure, shortened: as §1

[44] = target: Glc(b1-2)Glc(b1-2)Glc(b1-2)Glc(b1-2)Glc(b1-2)Glc(b1-2)Glc(b1-2)Glc(b1-2)Glc
Procedure, shortened: as §1

[45] = target: Glc(b1-2)Glc(b1-2)Glc(b1-2)Glc(b1-2)Glc(b1-2)Glc(b1-2)Glc(b1-2)Glc(b1-2)Glc(b1-2)Glc
Procedure, shortened: as §1

Measured: glycan array binding signal (z-score)

B1: Unk16A (Cellvibrio mixtus), Q336L6 (protein)
chain: VAYNTTGASSSAASSSAPSSASSSSSSAAPVLLSQGRPVTASSNFQPAANAVDGNGGTRWESTHGVSPSWIMVDLGSSKNLSQVIIDWEAANAANYLVQASNNGMSWTTLKIITTGAFGDRTDTHSVAGNYRYVRIYATARSAGNQWGYSIWELKITGN
1.69: [43]
-0.661: [24]
-0.664: [25] | [33]
-0.667: [20] | [21]
-0.659: [26]
2.11: [45]
3.49: [44]
2.22: [42]
0.509: [39]
-0.662: [23]
2.23: [40]
0.364: Glc(b1-2)Glc(b1-2)Glc
-0.346: Glc(b1-2)Glc
-0.666: [37]
2.74: [41]
-0.668: all other assays above
